Test results reported in PubChem BioAssay AID624173 (National Center for Advancing Translational Sciences (NCATS), 2012).
Several values for one entry are separate records, joined by “and”; a condition that tells them apart may be missing. Identical values can stand only once. The whole screen tested about 410,000 compounds, of which about 490 (0.12%) were called active. Inconclusive results, whose numbers are uncertain, are shown with a selection of clear calls. Calls come from the whole dose curve; as a rule, active = well fitted inhibition curve with a large enough effect; inconclusive = small, poorly fitted or top-dose-only effect; inactive = flat fitted curve, though single readings scatter. Potencies beside an inconclusive call are fits to weak or partial responses and may not hold up.

Biological target: pyruvate kinase (Trypanosoma brucei) (UniProt Q57TT1)
Test: qHTS of Trypanosoma Brucei Inhibitors; note: nearly all actives have a fitted effect of over 50% in size
Settings: TbPYK enzyme, Kinase-Glo Plus ATP luminescence, 45 min; series mostly up to 76.8 µM
Description: Members of the Trypanosomatidae family of parasitic protozoans cause a spectrum of diseases throughout the tropical and subtropical world. Sleeping sickness, caused by two subspecies of Trypanosoma brucei, is endemic to areas of sub-Saharan Africa, while Chagas' disease, a manifestation of Trypanosoma cruzi infection, is prevalent throughout Central and South America. In addition, many species of Leishmania are responsible for a range of cutaneous and visceral diseases, causing ulcers, destructive lesions and kalaazar, a lethal infection of the viscera. These diseases cause severe public health and economic burdens on populations that are often already caught in a tragic cycle of poverty, poor nutrition and disease. Collectively, parasites of the trypanosomatid family infect 30 million people worldwide (~500 million live in endemic areas), and account for ~130K deaths annually. Existing treatments have developed little in the past 50 years, and suffer from toxicity, poor efficacy and resistance; the goal of this project is to develop lead drugs that will be suitable for entry into pre-clinical trials.
Glycolysis in axenically cultured T. cruzi, representing the intracellular pathogenic stage, is also essential for these parasites. {Engel, 1987} This project aims to discover and optimize selective inhibitors of the glycolytic enzyme pyruvate kinase (PYK) from Trypanosoma brucei, the parasite that causes sleeping sickness. […] Trypanosomatid PYKs show significant differences from their human counterparts including only 47-50% sequence identity and different allosteric and activation properties.{Callens, 1992} To this end, a qHTS was done against the MLSMR to discover inhibitors.
NIH Molecular Libraries Probe Production Network [MLPCN]
NIH Chemical Genomics Center [NCGC]
PI Name: Malcolm Walkinshaw, University of Edinburgh
2 uL of TbPYK/substrate buffer (columns 1-3, 5-48) are dispensed into Greiner white solid bottom 1536-well assay plates; column 4 receives only TEA buffer as 0x TbPYK controls. Compounds are then transferred via Kalypsys pin tool equipped with 1536-pin array (10 nL slotted pins, V&P Scientific, San Diego, CA). Following addition of compound, 2 uL of ADP (130 uM final concentration, all columns) is added to initiate the reaction. The plates are then incubated at room temperature for 45 minutes. Kinase-Glo Plus reagent is added (3 uL) and plates incubated for 10 minutes, before being transferred to a ViewLux high-throughput CCD imager (PerkinElmer) wherein single end-point measurements of luminescence are acquired using a clear filter. All reagents are diluted in an assay buffer consisting of 50 mM TEA (pH 7.2), 100 mM KCl, 10 mM MgCl2, 0.05% BSA and 0.01% Tween-20.
All screening operations will be performed on a fully integrated robotic system (Kalypsys, San Diego, CA) containing one RX-130 and two RX-90 anthropomorphic robotic arms (Staeubli, Duncan, SC). Library plates will be screened starting from the lowest and proceeding to the highest concentration. Vehicle-only plates, with DMSO being pin-transferred to columns 5-48, will be inserted uniformly at the beginning and the end of each library in order to monitor and record any shifts in the background, which can be affected by reagent dispensers or loss in enzyme activity over time. Screening data will be corrected, normalized, and concentration-effect relationships will be derived by using publicly-available curve fitting algorithms developed in-house (http://ncgc.nih.gov/pub/openhts).
Potency is the fitted concentration of half-maximal effect; tags give direction and shape of the fitted curve.

Row | SMILES | Potency
1 | Cc1ccc(Cl)c2c1N[C@@H](c1ccc(C(=O)O)cc1)[C@H]1CC=C[C@@H]21 | inconclusive: 50.1 µM [inhibitor, single point]
2 | O=C(NC(CC(=O)N1CCCC(C(F)(F)F)C1)c1ccccc1)c1ccccc1Cl (configuration not stated) | inactive
3 | Cn1ccnc1SCC(=O)c1cccc(Br)c1 | inactive
4 | CC(=O)Oc1ccc(/C=C2/C(=O)N(c3ccccc3)N=C2C)cc1 | inconclusive: 31.6 µM [inhibitor, partial curve, poor fit]
5 | CCC1(c2ccccc2)NC(=S)N(c2cccc(C)c2C)N1 (configuration not stated) | inconclusive: 0.794 µM [inhibitor, partial curve, poor fit]
6 | COc1ccccc1-n1cc(-c2ccc(C)cc2)[nH]c1=S | inconclusive: 7.08 µM [inhibitor, full curve, poor fit]
7 | N#Cc1ccccc1OCC(=O)N1CCN(C(=O)c2ccco2)CC1 | inactive
8 | CCOC(=O)N1CCc2c(sc(NCc3ccc(OCC)cc3)c2C(=O)Nc2ccc(OC)cc2OC)C1 | inconclusive: 1.12 µM [inhibitor, full curve, poor fit]
9 | Cc1ccc(N2NC(=O)/C(=C\c3cc4c(cc3[N+](=O)[O-])OCO4)C2=O)cc1C | inconclusive: 28.2 µM [inhibitor, partial curve, poor fit]
10 | CCc1ccc(CCN2C(=O)c3ccccc3C2=O)nc1 | inactive
11 | CCc1ccc(-n2c(O)c(C=NCCN(CC)CC)c(=O)[nH]c2=O)cc1 | inactive
12 | Cc1ccc(NC(=O)CCC(=O)NNS(=O)(=O)c2ccccc2)c(C)c1 | inconclusive: 50.1 µM [inhibitor, single point]
13 | O=C1NC(=S)NC(=O)C1=Cc1ccc(OCC(=O)N2CCCC2)cc1 | inconclusive: 7.94 µM [inhibitor, partial curve]
14 | Oc1ccc(C2CNCCc3c2cc(O)c(O)c3Cl)cc1 (configuration not stated) | inconclusive: 22.4 µM [inhibitor, partial curve, poor fit] and inconclusive: 44.7 µM [inhibitor, single point]
15 | Cc1ccc(/C=N/n2c(COc3ccccc3)n[nH]c2=S)cc1 | inconclusive: 35.5 µM [inhibitor, partial curve, poor fit]
16 | NC(=O)c1sc2nc(N3CCOCC3)c3c(c2c1N)CCCC3 | inconclusive: 31.6 µM [inhibitor, partial curve, poor fit]
17 | CCOCCCNC(=O)c1cc(Sc2ccc(F)cc2)nc2ccccc12 | inactive
18 | COc1cccc(/C=N/n2c(-c3cc(C)[nH]n3)n[nH]c2=S)c1OC | inconclusive: 3.55 µM [inhibitor, partial curve, poor fit]
19 | N#CC1C(C#N)N2CCCN2C1c1ccc(Cl)cc1 (configuration not stated) | inconclusive: 31.6 µM [inhibitor, single point]
20 | CN1CC(C(=O)c2ccc(F)cc2)C(c2ccc(F)cc2)C1 (configuration not stated) | inactive
21 | O=C(O)C1CCN(S(=O)(=O)N2CCOCC2)CC1 | inconclusive: 50.1 µM [inhibitor, single point]
22 | N#CC1=C(N)C(C#N)(C#N)C(c2ccc[nH]2)C2CCCC=C12 (configuration not stated) | inconclusive: 1 µM [inhibitor, full curve, poor fit]
23 | COc1cccc(NC(=S)NNC(=O)c2ccccc2OC(F)F)c1 | inconclusive: 44.7 µM [inhibitor, partial curve, poor fit]

Row | SMILES | Potency
24 | O=C(/C=C/c1ccco1)Nc1cc(Cl)ccc1C(=O)O | inconclusive: 44.7 µM [inhibitor, single point]
25 | N/C(=N\OC(=O)CCC1CCCC1)c1cccc([N+](=O)[O-])c1 | inactive
26 | CCOc1ccc(NC(=O)c2ccc(NC(=O)c3ccc(NC(N)=O)cc3)cc2)cc1 | inactive
27 | O=C(CSc1nc2c(c(=O)[nH]1)CCCC2)Nc1cccc(O)c1 | inactive
28 | CCOc1cc(N2C(=O)CC3CS(=O)(=O)CC32)c(OCC)cc1NC(=O)c1ccccc1 (configuration not stated) | inconclusive: 31.6 µM [inhibitor, partial curve]
29 | CC(=O)N1c2ccc(S(=O)(=O)NCCC(=O)NCc3ccc(N(C)C)cc3)cc2CC1C (configuration not stated) | inconclusive: 50.1 µM [inhibitor, single point]
30 | COc1ccccc1N1C(=O)NC(=O)/C(=C/c2ccc3c4c(cccc24)CC3)C1=O | inconclusive: 31.6 µM [inhibitor, partial curve, poor fit]
31 | COc1cccc(CN(C(=O)c2ccc([N+](=O)[O-])cc2)C2CCS(=O)(=O)C2)c1 (configuration not stated) | inconclusive: 50.1 µM [inhibitor, single point]
32 | Cc1ccc(S(=O)(=O)N(C)C[C@H]2OCCCC[C@@H](C)Oc3ccc(N(C)C)cc3C(=O)N([C@H](C)CO)C[C@@H]2C)cc1 | active: 7.94 µM
33 | O=C(CSc1ncnc2nc[nH]c12)c1ccccc1 | inactive
34 | O=C(CSc1nnc(CNc2cccc(C(F)(F)F)c2)n1Cc1ccco1)NCc1ccco1 | inconclusive: 28.2 µM [inhibitor, partial curve, poor fit]
35 | O=S(=O)(O)c1ccc(O)c2cc(Nc3ccccc3)ccc12 | inconclusive: 31.6 µM [inhibitor, single point]
36 | Cc1ccc(/C=C/C(=O)Nc2nnc(C)s2)o1 | inconclusive: 31.6 µM [inhibitor, partial curve, poor fit]
37 | COc1ccc(OC)c(NC(=O)c2cc(S(=O)(=O)NCc3ccco3)ccc2F)c1 | inactive
38 | CC1(C)Cc2c(c(N3CCOCC3)nc3sc(C(=O)Nc4cccc(Cl)c4)c(N)c23)CO1 | inconclusive: 35.5 µM [inhibitor, partial curve, poor fit]
39 | CCOC(=O)c1cc(C(=O)OCC)c2cc(Br)ccc2n1 | inconclusive: 39.8 µM [inhibitor, single point]
40 | CCOc1ccccc1C(=O)Nc1ccc(C(=O)c2ccccc2)cc1 | inactive
41 | COc1cccc(CN2CCNC(=O)C2CC(=O)NC2CCCC2)c1OC (configuration not stated) | inactive
42 | COC(=O)c1sccc1NC(=O)Nc1ccc(C)c(C)c1 | inconclusive: 25.1 µM [inhibitor, partial curve]
43 | Cc1ccc(C)c(CSc2c(C(C)C)cnc3c2c(=O)n(C)c(=O)n3C)c1 | inconclusive: 25.1 µM [inhibitor, partial curve]
44 | Cc1ccnc(SCc2cc(=O)c(OC(=O)c3cc([N+](=O)[O-])ccc3Cl)co2)n1 | inactive
45 | O=[N+]([O-])c1ccc(N2CCN(C(=S)c3cccc([N+](=O)[O-])c3)CC2)cc1 | inconclusive: 3.55 µM [inhibitor, partial curve, poor fit]
46 | COc1ccc(OC)c(/C=N/n2c(-c3n[nH]c4c3CCC4)n[nH]c2=S)c1 | active: 3.55 µM

Row | SMILES | Potency
47 | Cc1ccccc1-n1c(-c2csc(C)c2C)n[nH]c1=S | inconclusive: 1 µM [inhibitor, full curve, poor fit]
48 | C=CCn1c(SCC(=O)N2CCCCC2)nc(O)cc1=O | inactive
49 | Cc1ccc(N2C(=O)NC(=O)/C(=C/c3ccoc3)C2=O)cc1 | inconclusive: 25.1 µM [inhibitor, partial curve]
50 | Cc1nc2sc(C(=O)O)c(N)c2c2c1COC(C)(C)C2 | inconclusive: 35.5 µM [inhibitor, partial curve, poor fit]
51 | COc1ccc(C2CC(=O)N3CN(c4ccc(C)c(Cl)c4)CSC3=C2C#N)cc1 (configuration not stated) | active: 3.16 µM
52 | Cc1cc(C(=O)CSc2nc3ccccc3c(=O)[nH]2)c(C)n1C | inconclusive: 28.2 µM [inhibitor, partial curve, poor fit]
53 | Cc1ccc(/C=N/n2c(C3CCCCC3)n[nH]c2=S)s1 | inconclusive: 12.6 µM [inhibitor, partial curve, poor fit]
54 | CCc1ccc(NC(=O)CSc2ccc(-c3cccnc3)nn2)cc1 | inactive
55 | CCN(CC)S(=O)(=O)c1ccc(C(=O)NCc2n[nH]c(=S)n2Cc2ccccc2)cc1 | inconclusive: 14.1 µM [inhibitor, partial curve]
56 | COc1cccc(N2CCN(C(=O)C3CCCN(S(=O)(=O)c4ccc5c(c4)oc(=O)n5C)C3)CC2)c1 (configuration not stated) | inactive
57 | Cc1nc2ccc(C(=O)O)cc2c2c1CC(C)S2 (configuration not stated) | inconclusive: 35.5 µM [inhibitor, partial curve]
58 | COc1ccc(/C=C2\C(=O)NC(=S)N(C)C2=O)cc1C | inconclusive: 28.2 µM [inhibitor, partial curve, poor fit]
59 | Cc1nn(-c2ccccc2)c2nc(=O)n(-c3ccccc3)cc12 | inconclusive: 39.8 µM [inhibitor, single point]
60 | Oc1ccc(NCc2cccc(OCc3ccc(F)cc3)c2)cc1 | inconclusive: 2.82 µM [inhibitor, full curve]
61 | Cc1cc2nnc(SCC(=O)Nc3cc(S(=O)(=O)N4CCOCC4)ccc3Cl)n2c2ccccc12 | inconclusive: 31.6 µM [inhibitor, single point]
62 | CCCC[C@@H]1CCCO[C@@](C(=O)NCc2ccc(C)o2)(C(F)(F)F)C1 | inconclusive: 25.1 µM [inhibitor, partial curve, poor fit]
63 | CCOc1ccc(CN(C(=O)c2ccccn2)c2ccc(OC)c(Cl)c2)cc1 | inactive
64 | CSc1ccccc1NC(=O)CN(C)C(=O)CCc1c[nH]c2ccccc12 | inactive
65 | CC(NC(=O)CSc1nnnn1C1CC1)c1ccccc1Br (configuration not stated) | inactive
66 | COc1ccc(/C=N/NC(=O)c2nonc2C)cc1 | inconclusive: 22.4 µM [inhibitor, partial curve, poor fit]
67 | COc1ccccc1C(=O)Nc1ccc2c(c1)CCCN2C(=O)c1ccccc1 | inconclusive: 50.1 µM [inhibitor, single point]
